Out of some 270,000 compounds screened, about 620 (0.23%) were called active. Inconclusive results, whose numbers are uncertain, are shown with a selection of clear calls. Calls come from the whole dose curve; as a rule, active = well fitted inhibition curve with a large enough effect in the polarisation, with a control signal flat (not every such curve was filed as active); inconclusive = small, poorly fitted or top-dose-only effect, or effect the other way, or a change in a side signal; inactive = no such curve, though single readings can be large or run the other way; the % refers to the polarisation. Potencies of inconclusive entries are doubtful fits and often do not repeat. A note “side channel” means that the fit belongs to a control or component signal, not to the main read-out.
Each molecule was assayed against Menin (Homo sapiens) (UniProt O00255) (assay: qHTS Assay for Inhibitors Targeting the Menin-MLL Interaction in MLL Related Leukemias: Competition With Texas Red Labeled MLL-derived Mutant Peptide). Details: fluorescence polarization; FP activity change, negative = inhibition: at 61.6 µM (top of the series).
UniProt O00255, sequence (O00255 whole entry, looked up): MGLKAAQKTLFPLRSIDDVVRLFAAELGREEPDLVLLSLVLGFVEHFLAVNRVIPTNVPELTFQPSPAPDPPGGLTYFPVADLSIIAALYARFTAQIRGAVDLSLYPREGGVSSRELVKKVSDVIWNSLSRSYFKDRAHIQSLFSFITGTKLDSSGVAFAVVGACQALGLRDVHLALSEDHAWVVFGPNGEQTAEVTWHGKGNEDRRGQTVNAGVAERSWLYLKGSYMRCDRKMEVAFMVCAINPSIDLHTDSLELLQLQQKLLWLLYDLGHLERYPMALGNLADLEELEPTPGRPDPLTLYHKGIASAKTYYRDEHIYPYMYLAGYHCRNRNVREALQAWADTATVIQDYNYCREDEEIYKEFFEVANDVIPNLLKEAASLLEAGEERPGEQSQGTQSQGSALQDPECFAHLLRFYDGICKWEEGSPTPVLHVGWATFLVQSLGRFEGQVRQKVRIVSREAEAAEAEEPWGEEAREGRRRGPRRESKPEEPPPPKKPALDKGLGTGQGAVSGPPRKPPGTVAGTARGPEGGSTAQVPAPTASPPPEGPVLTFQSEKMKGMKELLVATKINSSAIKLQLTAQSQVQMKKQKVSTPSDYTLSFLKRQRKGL
For `Cc1ccc(-n2c(CSc3nc(C)cc(C)n3)nnc2SCC(=O)NCc2ccco2)cc1`, the Potency was inconclusive: 8.91 µM [inhibitor, partial curve]. In the case of `Cc1ccccc1NC(=O)CSc1nc2ccccc2c(=O)n1CC1CCCO1` (configuration not stated), the Potency is reported as inconclusive: 25.1 µM [inhibitor, partial curve]. For `CC(=O)N1CCc2cc(S(=O)(=O)Nc3cccc(C(F)(F)F)c3)ccc21`, the “FP activity change, negative = inhibition” value was inactive: 13.7%. In the case of `CCOC(=O)C1(Cc2cccc(OC)c2)CCN(Cc2ccc(C)s2)CC1`, the Potency is reported as inconclusive: 20 µM [fluorescent, side channel, partial curve]. For `Nc1nc(NC2CC2)c2ncn([C@H]3C=C[C@@H](CO)C3)c2n1`, the “FP activity change, negative = inhibition” value was inactive: 0.144%. For `CCOC(=O)CSc1nc2ccsc2c(=O)n1C1CCN(C(=O)OCC)CC1`, the Potency was inconclusive: 12.6 µM [fluorescent, side channel, partial curve]. With `CCOC(=O)N1CCN(C(=O)c2ccccc2CCc2ccccc2)CC1` the Potency was inconclusive: 14.1 µM [inhibitor, single point]. In the case of `COc1ccc(S(=O)(=O)Nc2nncs2)cc1`, the Potency is reported as inconclusive: 3.55 µM [inhibitor, single point]. `CCOc1ccc(CN2CCN(CC3CC3)CC2CCO)cc1` (configuration not stated) was tested, and the Potency was inconclusive: 8.91 µM [quencher, side channel, single point]. `COc1ccc(/C=N/NC(=O)CN2CCS(=O)(=O)CC2)cc1` was tested, and the “FP activity change, negative = inhibition” value was inactive: 14.6%. With `CC(c1ccccc1)n1c(S(=O)(=O)O)nc2ccccc21` (configuration not stated) the Potency was inconclusive: 12.6 µM [quencher, side channel, partial curve]. In the case of `Cc1cccc(S(=O)(=O)Nc2ccc(-c3cn4ccccc4n3)cc2)c1`, the “FP activity change, negative = inhibition” value is reported as inactive: -7.97%. `Cc1cccc(NC2=Nc3ccccc3N3C2=Nc2c(c(C)nn2-c2ccccc2)C3c2ccc(O)c(O)c2)c1` (configuration not stated) was tested, and the Potency was inconclusive: 3.98 µM [quencher, side channel, full curve]. `COc1cc(/C=C2\OC(=O)c3c(OC)cccc32)ccc1O` was tested, and the Potency was inconclusive: 8.91 µM [quencher, side channel, partial curve]. For `Cc1ccc2nc(NC(=O)C3CCN(S(=O)(=O)c4cccc5nsnc45)CC3)sc2c1`, the Potency was inconclusive: 8.91 µM [quencher, side channel, partial curve]. For `Cc1cccc(OCC(=O)Nc2cc(NC(=O)COc3cccc(C)c3C)cc(C(=O)O)c2)c1C`, the Potency was inconclusive: 28.2 µM [quencher, side channel, single point]. With `O=C(O)c1ccccc1C(=O)c1ccc2c(c1)N(Cc1ccc(Cl)c(Cl)c1)C(=O)CO2` the Potency was inconclusive: 2.82 µM [fluorescent, side channel, full curve, poor fit]. `CCCCNC(=O)c1cn(-c2ccc(OCC)cc2)c(=O)c2cc(OC)c(OC)cc12` was tested, and the Potency was inconclusive: 20 µM [fluorescent, side channel, partial curve]. For `CCCCN(C)CCCN1C(=O)C2C(C(=O)Nc3cccc(OC)c3)C3C=CC2(O3)C1C(=O)NC1CCCCC1C` (configuration not stated), the Potency was inconclusive: 2.82 µM [inhibitor, single point]. In the case of `O=C(Nc1cccc(NC(=O)c2ccc([N+](=O)[O-])o2)c1)c1ccco1`, the Potency is reported as inconclusive: 22.4 µM [quencher, side channel, single point]. For `O=C(O)c1cc([N+](=O)[O-])cc([N+](=O)[O-])c1N1CCN(c2cccc(C(F)(F)F)c2)CC1`, the Potency was inconclusive: 28.2 µM [quencher, side channel, partial curve]. `CCC(C(=O)Nc1ccc(C)cc1)c1ccccc1` (configuration not stated) was tested, and the “FP activity change, negative = inhibition” value was inactive: -10.1%. `O=C(CC1CC2CCC1C2)OCC(=O)c1c[nH]c2ccccc12` (configuration not stated) was tested, and the Potency was inconclusive: 8.91 µM [quencher, side channel, partial curve]. With `COc1ccc(C(CCN(Cc2ccc(OC)c(OC)c2)C(=O)CCl)c2ccccc2)cc1` (configuration not stated) the Potency was inconclusive: 17.8 µM [fluorescent, side channel, partial curve]. `COc1ccc(-c2cc(C3C4C=CCC(C)C4C(=O)N3Cc3ccccc3)ccc2F)cc1OC` (configuration not stated) was tested, and the Potency was inconclusive: 2.24 µM [fluorescent, side channel, full curve, poor fit]. `C/C(=N/Nc1ccc(F)cc1)c1ccc(Cl)s1` was tested, and the Potency was inconclusive: 28.2 µM [quencher, side channel, partial curve]. For `COc1cccc(Nc2ccc(Nc3cccc(OC)c3)nn2)c1`, the Potency was inconclusive: 31.6 µM [quencher, side channel, single point]. For `CN(C1CCCC1)C1CCN(C(=S)Nc2cc(F)cc(F)c2)CC1`, the Potency was inconclusive: 35.5 µM [inhibitor, single point]. In the case of `COC(=O)c1c(NC(=O)c2cccnc2)sc(C)c1C`, the Potency is reported as inconclusive: 31.6 µM [fluorescent, side channel, single point]. `O=C(Nc1ccc(N2CCOCC2)cc1)c1ccc(COc2ccccc2)cc1` was tested, and the Potency was inconclusive: 11.2 µM [quencher, side channel, single point]. With `COC(=O)c1c(S(N)(=O)=O)c2ccccc2n1C` the “FP activity change, negative = inhibition” value was inactive: 0.987%. For `COC(=O)c1sccc1-c1ccc(C(=O)Nc2cccc(Cl)c2)o1`, the Potency was inconclusive: 12.6 µM [quencher, side channel, partial curve]. In the case of `Cc1nn2c(-c3ccc(S(=O)(=O)N4CCN(CCO)CC4)o3)nnc2c2ccccc12`, the Potency is reported as inconclusive: 22.4 µM [inhibitor, partial curve]. In the case of `Cc1cccc(C)c1OCC(O)Cn1ccnc1C` (configuration not stated), the Potency is reported as inconclusive: 22.4 µM [fluorescent, side channel, partial curve]. In the case of `Cc1ccc(NC(=S)NCCc2c[nH]c3ccccc23)cc1`, the Potency is reported as inconclusive: 22.4 µM [quencher, side channel, single point]. In the case of `C[N+](C)(C)CCOC(=O)CCC(=O)OCC[N+](C)(C)C`, the “FP activity change, negative = inhibition” value is reported as inactive: -1.94%. `O=C(Nc1ccc(C(=O)NCc2ccc(F)cc2)cc1)C1=CSCCO1` was tested, and the Potency was inconclusive: 39.8 µM [fluorescent, side channel, single point].
Potency is the fitted concentration of half-maximal effect; tags give direction and shape of the fitted curve or compound fluorescence and quenching.
Throughout, for FP activity change, negative = inhibition: % of control where 0% means no effect.
